In all, about 310,000 compounds went through this assay and about 2,200 (0.71%) showed an effect of 50% or more. The effect is printed as a negative number. This is one part of the list.
molecular target: human ether-à-go-go-related gene (hERG) potassium channel (human, UniProt Q12809); assay: primary screen, population patch clamp on CHO cells stably expressing hERG
Sequence (Q12809 whole entry, looked up): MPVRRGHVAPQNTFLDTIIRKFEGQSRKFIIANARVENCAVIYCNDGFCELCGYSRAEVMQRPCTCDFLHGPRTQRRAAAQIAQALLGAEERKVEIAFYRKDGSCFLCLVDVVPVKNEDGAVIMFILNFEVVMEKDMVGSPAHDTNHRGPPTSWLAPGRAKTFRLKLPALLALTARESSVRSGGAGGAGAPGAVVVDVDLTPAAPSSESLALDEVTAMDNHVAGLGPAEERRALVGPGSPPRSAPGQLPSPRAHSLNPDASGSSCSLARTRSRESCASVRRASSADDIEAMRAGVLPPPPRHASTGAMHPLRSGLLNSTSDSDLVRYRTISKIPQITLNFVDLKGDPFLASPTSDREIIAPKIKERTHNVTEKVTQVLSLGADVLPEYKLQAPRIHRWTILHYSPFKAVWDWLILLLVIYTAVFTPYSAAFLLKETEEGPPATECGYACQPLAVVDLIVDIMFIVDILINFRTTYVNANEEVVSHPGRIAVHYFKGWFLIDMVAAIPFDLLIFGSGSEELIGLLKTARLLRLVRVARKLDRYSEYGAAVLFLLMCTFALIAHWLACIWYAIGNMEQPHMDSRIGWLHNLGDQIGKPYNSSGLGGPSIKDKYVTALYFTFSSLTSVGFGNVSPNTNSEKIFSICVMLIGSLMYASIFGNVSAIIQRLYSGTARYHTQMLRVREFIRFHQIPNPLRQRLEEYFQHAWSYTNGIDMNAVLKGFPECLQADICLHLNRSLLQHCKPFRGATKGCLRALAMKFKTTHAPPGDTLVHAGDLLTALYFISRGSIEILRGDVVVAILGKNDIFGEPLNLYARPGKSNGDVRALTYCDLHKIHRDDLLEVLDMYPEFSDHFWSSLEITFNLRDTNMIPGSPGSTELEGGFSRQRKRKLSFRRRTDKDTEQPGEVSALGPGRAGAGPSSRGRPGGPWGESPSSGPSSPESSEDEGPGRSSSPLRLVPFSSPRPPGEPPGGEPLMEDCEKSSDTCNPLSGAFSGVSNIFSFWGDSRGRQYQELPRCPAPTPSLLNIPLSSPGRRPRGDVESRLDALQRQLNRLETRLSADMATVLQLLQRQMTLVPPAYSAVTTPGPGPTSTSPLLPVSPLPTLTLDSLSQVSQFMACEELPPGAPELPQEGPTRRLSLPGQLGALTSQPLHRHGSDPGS

SMILES	hERG current change (%, negative = inhibition) at 1uM [%]
COc1ccc(-c2cc(C(=O)NC3=NCCS3)c3ccccc3n2)cc1OC	8.46
CNC(=O)C(=O)NCCN1CCN(S(=O)(=O)c2ccc3ccccc3c2)CC1	22.5
COc1ccc(OC)c(S(=O)(=O)N2CCCC(C(=O)NCc3ccncc3)C2)c1 (centres unmarked)	18.4
O=C(O)CCCNS(=O)(=O)c1ccc(Br)s1	1.81
CCN(CC)S(=O)(=O)c1ccc2nnn(OCC(=O)Nc3cccc(C#N)c3)c2c1	6.92
CCc1cc2c(-c3ccccc3)cc(=O)oc2c(CN2CCOCC2)c1O	14.5
Nc1cc(=O)[nH]c(SCc2nc3ccccc3n2Cc2ccccc2)n1	-10.8
O=C(Nc1ccccc1C(=O)NCCCn1ccnc1)c1ccc(Cl)cc1Cl	-12.3
CCOc1ccc(C(=O)/C=C/Nc2ccc(S(=O)(=O)N=C(N)N)cc2)cc1	12.8
CCOc1ccc(NC(=S)N2CCC(NC(=O)c3ccco3)CC2)cc1	13.2
Cc1ncc(C23CC4CC(CC(C4)C2)C3)[nH]1	13.8
Cc1c(CC(=O)N2CCN(C(=O)C3COc4ccccc4O3)CC2)c(=O)oc2c(C)c(O)ccc12 (centres unmarked)	-3.63
Cc1ccc(S(=O)(=O)NCCNC(=O)c2cc(OCC(F)(F)F)ccc2OCC(F)(F)F)cc1	9.58
COc1cc(/C=N/n2nnnc2N)cc(Cl)c1OC	10.4
CN(CCOc1ccccc1)CC(=O)Nc1ccc(Br)cc1F	9.2
COc1cc(NC(=O)c2cc([N+](=O)[O-])ccc2NC(=O)CN2CCN(c3ccccn3)CC2)cc(OC)c1	1.59
Cc1ncc(CO)c(CNc2ccc(-c3nc4ccccc4[nH]3)cc2)c1O	12.9
Cc1ccc(S(=O)(=O)N2CCN(C(=O)CSc3ccc(Cl)cc3)CC2)cc1	15.5
COc1ccccc1OCC(=O)NCC(C)NC(=O)COc1ccccc1OC (centres unmarked)	9.89

SMILES	hERG current change (%, negative = inhibition) at 1uM [%]
COc1ccc(S(=O)(=O)NCCSCc2cccs2)cc1	1.54
COc1ccc(Br)cc1CN(C)C(=O)c1ccncc1	9.93
CCn1c(SCC(=O)Nc2cccc(F)c2)nnc1-c1cc2cc(Br)ccc2o1	17.8
Cc1cccc(Nc2nc(-c3ccc(O)cc3O)cs2)n1	11.2
C=CCNc1nc2ccccc2c(=O)[nH]1	10.3
CC(=O)n1cc([C@H]2C=C(C(=O)NCc3ccccc3)O[C@@H](OCc3ccc(CO)cc3)C2)c2ccccc21	11.8
O=C(CCC(F)(F)F)N1CCCC(N2CCN(c3cccc(Cl)c3)CC2)C1 (centres unmarked)	-15.6
CCCOc1ccc(CSCCNC(=S)Nc2ccccc2)cc1	10.7
COC(=O)CC1=C(C(=O)OC)C2(C(=O)N(C)c3ccccc32)C(C#N)=C(N)O1 (centres unmarked)	13.1
CC(C)C(NC(=O)c1ccco1)C(=O)OCC(=O)NCCc1ccccc1 (centres unmarked)	19.2
Cc1ccc(F)cc1NC(=O)c1c(-c2ccccc2)noc1C	8.76
O=C(Nc1ccc(S(=O)(=O)N2CCCCCC2)cc1)c1c(F)cccc1F	9.45
CCOc1ccc(NS(=O)(=O)c2ccc(C(=O)NCC(c3cccs3)N3CCOCC3)cc2)cc1 (centres unmarked)	-2.65
CC(C)COP(=O)(c1ccc(N(C)C)cc1)C(Nc1ccccc1)c1cccnc1 (centres unmarked)	4.07
O=C(NC1CCCCC1)Oc1cc2oc(=O)sc2cc1Br	11.5
CCOC(=O)CSC1=C(C#N)C(c2ccc(C)cc2)C(C(=O)OC)C(=O)N1 (centres unmarked)	14.4
Cc1ccc(N2CCN(C(=O)c3cccs3)CC2)c(C)c1	-0.116
Cn1c(=O)c(NCCc2ccccc2)c2c3c(cccc31)C(=O)c1ccccc1-2	9.08
Cc1ccc(S(=O)(=O)NCc2ccc(C(=O)NCc3cccnc3)cc2)cc1	12.4

SMILES	hERG current change (%, negative = inhibition) at 1uM [%]
CN1CCCc2cc(C#N)c(=O)[nH]c21	-2.17
Cc1ccc(Cl)cc1NC(=O)NCc1ccccn1	8.39
Cc1cccc(NC(=O)CSc2nnc(-c3n[nH]c4ccccc34)o2)c1	6.6
N#Cc1ccccc1N=Cc1ccc(Br)cc1	10.3
CC1CCCC(NC(=O)COC(=O)c2ccccc2Sc2ccccc2C#N)C1C (centres unmarked)	-0.154
CCn1c(-c2nn(C)cc2Cl)n[nH]c1=S	17.7
CCCCNC(=O)NNC(=O)c1cc(C)on1	9.97
COC(=O)COc1cccc(NS(=O)(=O)c2cccc([N+](=O)[O-])c2)c1	20.2
Cc1ccc(OCC(=O)N(Cc2ccc(N(C)C)cc2)C2CCS(=O)(=O)C2)cc1 (centres unmarked)	12.8
COc1ccc(NC(=O)Nc2ccc(C(C)C)cc2)cc1	12.4
CCCCc1ccc(S(=O)(=O)NCCc2ccncc2)cc1	-6.17
Cc1cc(NC(=O)c2cncc(Br)c2)ccc1NC(=O)c1cc2ccccc2o1	5.92
CCN/C=C(\C#N)S(=O)(=O)c1ccc(Br)cc1	10.3
CCC(C)[C@H](N)c1nnc(SCC(=O)c2ccc(Cl)cc2)o1 (some centres unmarked)	-16.1
COc1ccc(S(=O)(=O)Cc2ccc(C(=O)N3CCN(c4ccccc4)CC3)o2)cc1	-9.91
O=C(CNc1ccc(Br)cc1)Nc1cccc(S(=O)(=O)N2CCCC2)c1	-8.73
COC(=O)C(C)(C)ONC(=O)Nc1ccccc1[N+](=O)[O-]	1.19
CN(C)P(=NC(=O)COc1ccc(Cl)cc1Cl)(N(C)C)N(C)C	3.78
